Source: the supplement of paper PMC11417369
This is one part of the list.

Tested on: PfHDP1 homeodomain (GST-tagged)
Test: gcPBM binding intensity (ln(normalized median fluorescence intensity)); higher = stronger DNA binding
Outline: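 The binding buffer was 1× PBS containing 1% milk, 0.2 mg/ml BSA, 0.5% salmon testes DNA and 0.03% Triton X-100. In it, GST-tagged P. falciparum DNA-binding domains expressed in E. coli were applied for 1 h to an Agilent 4 × 180k array of primer-extended double-stranded 36-bp intergenic genomic probes plus negative controls. Binding intensity, read with Alexa488 anti-GST antibody and a 488 nm scan, is the highest Masliner-normalised natural-log median intensity across replicate spots of either probe orientation.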

| Sequence | gcPBM binding intensity (ln) |
| --- | --- |
| ATTTAACTAAAGAAGGCACACGTGTTTAAAAAAAAA [CACACA_site5241] | 6.49 |
| CATTTATATATATACACACACACAAAAAAAAAAAAA [CACACA_site2645] | 6.52 |
| AATATTATATTTTATTGTACTAATAAAAATATATGC [XGTACX_site5435] | 6.43 |
| GACGTTATGATACACATACACACAGGGATAAAAAAT [CACACA_site2882] | 6.81 |
| TATACACATTTTTATACACACTTGTTTTATAAAACG [CACACA_site6480] | 6.91 |
| ATAATATGAAATATAACACACATATATAAAAACATT [CACACA_site866] | 6.69 |
| TATTTTTTTTTTGGGTGTACCTTTTATATATATTGT [XGTACX_site5036] | 6.74 |
| TTATCTTACATAAATTATAACAATAATATGTGTATA [XGTACX_negctrl_site379] | 6.03 |
| TGTATATATTATAAAAGTACATAATATTCTTAGATA [XGTACX_site5623] | 6.19 |
| CATTTCGAAAAAAAATGTACTTATTATATTTATATA [XGTACX_site6752] | 6.04 |
| AGCATTAAAAATGGAATGGAATTAAGCTATATATTA [CACACA_negctrl_site1571] | 6.18 |
| GAAACTTCAAGAAATGCACACAATAAAATAAATAAA [CACACA_site1549] | 9.4 |
| ATAGAATATTATATTACACACAGAATAATAAAAAAT [CACACA_site86] | 6.38 |
| AGTATATATTATATATATATATATATATTATATATG [TGCATGCA_negctrl_site99] | 6.59 |
| ACATCTCTTATATATTCACACACATATATATAATTA [CACACA_site8424] | 7.05 |
| GCACATCTATATGAAACACACATGGAAACATCTCTT [CACACA_site7793] | 6.53 |
| TTTTTTTTTTAATTCGCACACTGTCTTCATGCAATT [CACACA_site4882] | 7.23 |
| TTAAAAAATTTTTAAGCACACACATAGATAATATAT [CACACA_site8440] | 7.07 |
| ATGGGACATATATATACACACATATATATATATATA [CACACA_site1202] | 9.32 |
| TTTAATCATATGTTATATAATAAGCCCCCCCCCCAA [CACACA_negctrl_site486] | 9.33 |
| AAAAAAATTAAACATGAAGAATAAGGAACAAAAAAA [CACACA_negctrl_site1607] | 6.84 |
| ATTTAAGTAGTACATACACACACATATACAAAAAGA [CACACA_site9317] | 7.29 |

| Sequence | gcPBM binding intensity (ln) |
| --- | --- |
| TTTTGTCTTATATGTTGTACAACGTAAACAAAAAAA [XGTACX_site4412] | 6.47 |
| AAAAGAATATATAATTGTACTTAAAATATAATTAAG [XGTACX_site4484] | 6.15 |
| TTTCGATTAAAAATTGTACAATATAAGGAGCACACA [GTGCAC_negctrl_site476] | 7.92 |
| ACTGTAACAATCATGGGTACAAATAAAATAATATCT [XGTACX_site99] | 6.45 |
| ATGAAAATTATAAAGTGTACATATAGAAACATTTAC [XGTACX_site8047] | 6.38 |
| CTTTTTTTGACCTTAGTGCAAATAACTATATATTAT | 9.48 |
| AACCACAGACATATAACACACATATACAATATATAT [CACACA_site5142] | 6.74 |
| TAAAAAAAAAAATGAACATGCAACAATTGTGATGAA [TGCATGCA_site332] | 6.94 |
| TAAATATATTTATAAGCACACACTAATAAACCAACA [CACACA_site8022] | 7.05 |
| TTATGCAATTTGTATTGTACATTCATGATATTAATA [XGTACX_site5070] | 7.05 |
| AATGTGTACGCACGCACACACAAAAAAATATATATA [CACACA_site2913] | 7.86 |
| ATCTATATCTATAATACACACATAAATGGATATATA [CACACA_site6284] | 6.6 |
| CAAGCCCTTCTGCTTACACACAGTAATTATTGTGCA [CACACA_site7399] | 6.34 |
| TATATATAGAAACACACACACACACCCAAGCGTAGC [CACACA_site63] | 7.03 |
| ATTATAACTAAATAAATGATATATAATATTTTATTT [XGTACX_negctrl_site234] | 5.89 |
| TAATAAATCAATAAATGTACATATATGTATAATTTC [XGTACX_site980] | 6.47 |
| AATTATAAAAAAAAAAAAAAAAAAAAAAACTAAATG [CACACA_negctrl_site1379] | 6.04 |
| ATAATGTATTTATATATATATATATATTTTAATAAA [CACACA_negctrl_site460] | 6.43 |
| TTTAAAAATATATTCACACAGAAATAGTAAAAGTTA [CACACA_site4587] | 6.55 |
| ATATATTTATATATTTGTACATATAATATCTTCTTT [XGTACX_site8504] | 6.09 |
| ATTTATTAATTACCATGTATAAAAAATTATATAATA [CACACA_negctrl_site581] | 6.25 |
| GTCGTATAATTTTCAGTGCAATATTTGAATAAATGG [GTGCAC_site9404] | 8.97 |

| Sequence | gcPBM binding intensity (ln) |
| --- | --- |
| AGCAACTCAATATATATAAGAATTGTAATATAATAT [GTGCAC_negctrl_site429] | 6.44 |
| ATACAATACAAAAACACACACAAAAAAAGAAAAGGA [CACACA_site2156] | 7.32 |
| AATACCCATATCTTCACACATACATAATAAATTATA [CACACA_site5367] | 6.78 |
| TTTATTTATGTGTGGGTGCATATACGTATGATGTAT | 9.12 |
| TTTGAATATTCATATGCACACAAATTAATATACATA [CACACA_site8040] | 9.99 |
| GATTTATACAAATATGTACACACTAAATATATATTA [CACACA_site455] | 6.86 |
| TTTATTTTATTTTCATGTACAAAAGGGGAATAATAA [XGTACX_site2704] | 6.67 |
| ATATGTATGTATTTATTATTGTGCATTGTATTTATA [CACACA_negctrl_site664] | 10.3 |
| TATTTATCTTTACGCACACACTTGCATGTACAAAAG [CACACA_site4753] | 8.41 |
| AAAATAATTCATGTTGGTAATAAGACTCGAGGTGAA [CACACA_negctrl_site1054] | 6.77 |
| TTTATTTTAAATGGGTGTACTCATTCCTTATGGAAG [XGTACX_site1397] | 6.27 |
| TAATAGATGTTATGAAGTACTAAATATTAAATATAA [XGTACX_site5717] | 6.46 |
| GTATAATATTTTAATGCACACACACTAATAAAAAAA [CACACA_site8939] | 10.4 |
| TTTGGATAAAAAATATGTACACACATATAGATATCT [XGTACX_site5660] | 6.17 |
| TTGACAGGAACGTTGGTGCACGTACTGTTTTTCTTT [GTGCAC_site9389] | 9.26 |
| AAGTATAAATAAAGGCGTACACATGTAAATTATATT [XGTACX_site126] | 6.79 |
| AAAAAAAAAAAATACACACACATATTTATTTATATA [CACACA_site7114] | 6.47 |
| AAAAAAGGTAAAAAAAGTACAAAAAAAAAATTAAAA [XGTACX_site6993] | 6.18 |
| AGTAGTCTGGAGAAAAGTACATAGTATCTGATAACC [XGTACX_site2028] | 6.61 |
| TGCTTATATATAAATTGTACTGAAAGAATAAAATAA [XGTACX_site4025] | 6.52 |
| AAAAAGATAAAATATACATGCATATATAATATACAT [TGCATGCA_site488] | 6.39 |
| ACGTATTTTTAAATATATGAATTATGTAACTTGTGA [CACACA_negctrl_site1446] | 6.16 |

| Sequence | gcPBM binding intensity (ln) |
| --- | --- |
| GAATATGTGATATTTTGTACATAAAAATAATATATA [XGTACX_site6398] | 6.49 |
| TATACTATTTAAATGTGTACTAAAAGAATATATTAT [XGTACX_site5238] | 6.61 |
| CTATATGTTAAATTCTCACACATTATTACAATTTAA [CACACA_site5979] | 6.78 |
| TGTTCATTTTTAAAATGTACATATATGTTGTTCCAT [XGTACX_site8444] | 6.77 |
| CATATGTATATGACTACACACAAGGGTGTACCTATA [CACACA_site6670] | 6.34 |
| TTAAAAATAAATTCATGTACATAATATATATATATA [XGTACX_site7908] | 8.86 |
| TATATACAACGTTAAGCACACACAAAAAAAATTTAA [CACACA_site9013] | 6.86 |
| AAAACATAAATACATACACACATAATATAGATTAAT [CACACA_site6205] | 6.63 |
| TTGCATTTATTATACACACACAAAAAAATATTTATA [CACACA_site6252] | 7.08 |
| ATTTAATTTTTTTTTTTTTTTTTTCAATCCCCTTTT [CACACA_negctrl_site1013] | 6.11 |
| TTTTAAACAAAAATTTGTACACAATAATTAAATATA [XGTACX_site6755] | 6.67 |
| CATTTTAAAGAAAATACACACAAAAATAAATATATA [CACACA_site1395] | 6.6 |
| TTTTTTTATTAAAAATGTACAAAAATGAAAAAATAA [XGTACX_site8279] | 6.62 |
| CATATAATTTTATGGGTGCATTTTTTTGTAAGACCA | 8.63 |
| TAAAAAAATATATATACATGCATAGAAAAAAAAAAA [TGCATGCA_site552] | 6.5 |
| TAATAATAAATTGGTTGTACAACCTTATACAGAATA [XGTACX_site2592] | 6.58 |
| ACACAAAAAATAAAAATATATATATATTATATATAT [CACACA_negctrl_site1489] | 7.32 |
| TTTATACACAAAAAATGTACATATATATAATGAATT [XGTACX_site1195] | 6.78 |
| CGTTTATATAGTGATGCATGCATTGTTAACATGGTT [TGCATGCA_site418] | 7.1 |
| CGCACAAAAATATACACACACACATATATATTTATT [CACACA_site3645] | 7.33 |
| TGTATGTCTTTATTTTGTACACAATATAAAAAATTA [XGTACX_site5441] | 6.69 |
| TATATTTACGTATGTCGAACGTTATTTTGAACAACC [CACACA_negctrl_site1261] | 6.44 |
